Data: publication PMC8214760
No constants are given. Whether binding was seen depends on the method and setting. In cells and extracts the contact can be indirect. Some binding calls cover weakened binding; strength is not graded here. For some assays here: Sequences can lack the tags named with a protein. Values belong to the molecule of their own block, whether it stands above or below them.

The chains behind the UniProt entries cited, without tags or fusion partners.
UniProt P62491: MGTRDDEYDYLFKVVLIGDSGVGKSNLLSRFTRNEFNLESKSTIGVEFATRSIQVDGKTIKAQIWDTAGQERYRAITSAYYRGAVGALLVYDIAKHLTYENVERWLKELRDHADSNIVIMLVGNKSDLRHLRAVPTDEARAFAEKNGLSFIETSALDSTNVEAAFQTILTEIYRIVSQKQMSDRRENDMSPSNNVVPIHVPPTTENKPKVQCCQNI
UniProt Q9UPT5: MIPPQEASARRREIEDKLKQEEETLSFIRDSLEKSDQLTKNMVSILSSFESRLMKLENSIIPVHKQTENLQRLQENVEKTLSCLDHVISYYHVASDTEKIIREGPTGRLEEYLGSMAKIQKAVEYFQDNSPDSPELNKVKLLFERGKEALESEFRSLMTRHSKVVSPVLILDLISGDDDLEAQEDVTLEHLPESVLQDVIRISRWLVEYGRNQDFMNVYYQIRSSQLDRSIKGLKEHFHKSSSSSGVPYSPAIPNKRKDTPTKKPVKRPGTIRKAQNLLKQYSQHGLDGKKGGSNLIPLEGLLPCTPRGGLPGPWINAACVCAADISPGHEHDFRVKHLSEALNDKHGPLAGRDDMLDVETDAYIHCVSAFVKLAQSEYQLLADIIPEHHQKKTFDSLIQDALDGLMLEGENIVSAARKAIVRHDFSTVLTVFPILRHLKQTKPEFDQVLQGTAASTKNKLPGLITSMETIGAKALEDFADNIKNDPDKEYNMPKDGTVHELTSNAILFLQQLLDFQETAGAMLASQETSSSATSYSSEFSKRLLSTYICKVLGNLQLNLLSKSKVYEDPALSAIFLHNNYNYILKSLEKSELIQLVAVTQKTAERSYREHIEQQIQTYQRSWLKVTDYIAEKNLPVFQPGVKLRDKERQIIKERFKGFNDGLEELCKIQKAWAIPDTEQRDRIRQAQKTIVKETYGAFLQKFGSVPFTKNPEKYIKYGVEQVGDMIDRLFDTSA
UniProt Q96A65: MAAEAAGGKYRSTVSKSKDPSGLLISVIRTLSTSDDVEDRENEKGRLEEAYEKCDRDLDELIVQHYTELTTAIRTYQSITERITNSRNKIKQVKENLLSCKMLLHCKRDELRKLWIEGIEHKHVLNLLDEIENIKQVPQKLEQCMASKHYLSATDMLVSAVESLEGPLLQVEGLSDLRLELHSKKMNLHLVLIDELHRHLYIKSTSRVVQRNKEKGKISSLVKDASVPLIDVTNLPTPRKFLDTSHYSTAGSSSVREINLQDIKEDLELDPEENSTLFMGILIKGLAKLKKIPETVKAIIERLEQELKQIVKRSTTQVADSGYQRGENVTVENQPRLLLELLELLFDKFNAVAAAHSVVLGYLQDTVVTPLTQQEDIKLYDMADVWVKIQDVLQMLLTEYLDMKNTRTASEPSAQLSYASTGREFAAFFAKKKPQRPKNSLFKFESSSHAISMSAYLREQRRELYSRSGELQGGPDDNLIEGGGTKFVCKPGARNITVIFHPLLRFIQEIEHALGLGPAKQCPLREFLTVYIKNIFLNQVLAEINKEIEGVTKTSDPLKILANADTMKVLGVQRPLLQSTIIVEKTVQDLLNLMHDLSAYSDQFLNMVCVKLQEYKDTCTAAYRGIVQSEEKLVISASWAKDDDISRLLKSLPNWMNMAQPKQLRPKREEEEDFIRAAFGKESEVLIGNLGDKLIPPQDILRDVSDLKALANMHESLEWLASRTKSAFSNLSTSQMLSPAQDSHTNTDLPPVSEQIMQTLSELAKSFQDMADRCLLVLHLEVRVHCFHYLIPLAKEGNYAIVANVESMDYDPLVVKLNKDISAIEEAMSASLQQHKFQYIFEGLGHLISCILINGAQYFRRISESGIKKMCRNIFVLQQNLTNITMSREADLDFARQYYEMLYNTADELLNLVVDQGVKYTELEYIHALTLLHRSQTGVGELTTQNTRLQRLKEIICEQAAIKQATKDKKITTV
UniProt Q8TAG9: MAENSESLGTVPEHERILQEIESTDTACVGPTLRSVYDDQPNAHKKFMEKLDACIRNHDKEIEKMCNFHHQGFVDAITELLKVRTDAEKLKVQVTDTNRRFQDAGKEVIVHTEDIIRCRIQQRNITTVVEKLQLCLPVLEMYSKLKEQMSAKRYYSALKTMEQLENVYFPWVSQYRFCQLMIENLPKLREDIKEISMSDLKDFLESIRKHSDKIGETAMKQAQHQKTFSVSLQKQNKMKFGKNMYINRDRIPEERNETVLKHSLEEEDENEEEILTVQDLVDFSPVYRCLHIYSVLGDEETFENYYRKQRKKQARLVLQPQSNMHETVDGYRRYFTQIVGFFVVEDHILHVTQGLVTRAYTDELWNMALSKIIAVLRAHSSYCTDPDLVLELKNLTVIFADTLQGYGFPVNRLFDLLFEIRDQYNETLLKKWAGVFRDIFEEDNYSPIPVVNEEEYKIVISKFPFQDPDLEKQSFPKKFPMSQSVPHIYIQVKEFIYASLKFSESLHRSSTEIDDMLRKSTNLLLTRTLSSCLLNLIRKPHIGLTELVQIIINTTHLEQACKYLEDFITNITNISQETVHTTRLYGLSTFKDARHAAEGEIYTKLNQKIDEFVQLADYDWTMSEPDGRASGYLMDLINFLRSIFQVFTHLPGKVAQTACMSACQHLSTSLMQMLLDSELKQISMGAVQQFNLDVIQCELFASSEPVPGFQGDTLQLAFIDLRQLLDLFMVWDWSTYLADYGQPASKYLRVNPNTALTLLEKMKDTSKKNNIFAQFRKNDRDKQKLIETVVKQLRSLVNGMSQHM

Columns and labels:
[1] = biological target: GFP-tagged Rab11a (UniProt P62491); assay: co-IP; GFP-fused protein precipitated with GFP-Trap beads from 350-800 µg total HeLa cell extract (RIPA: 50 mM Tris-HCl pH 7.5, 150 mM NaCl, 1% IGEPAL), 2 h at 4°C; washed with RIPA 500 mM NaCl and 150 mM NaCl; western blot
[2] = biological target: T1, GFP-tagged Rab3 (GFP-Rab3a) (UniProt P20336); assay: as above
T1 sequence: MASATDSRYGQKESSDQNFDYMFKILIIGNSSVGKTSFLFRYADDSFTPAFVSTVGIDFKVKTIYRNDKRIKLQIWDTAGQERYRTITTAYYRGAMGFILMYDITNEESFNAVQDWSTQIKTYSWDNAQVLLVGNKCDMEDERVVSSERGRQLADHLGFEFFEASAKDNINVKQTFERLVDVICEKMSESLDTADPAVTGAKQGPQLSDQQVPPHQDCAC

[3] = biological target: T2, GFP tagged to wild-type GRAB (GRAB-GFP) (UniProt Q8TBN0); assay: as above
T2 sequence: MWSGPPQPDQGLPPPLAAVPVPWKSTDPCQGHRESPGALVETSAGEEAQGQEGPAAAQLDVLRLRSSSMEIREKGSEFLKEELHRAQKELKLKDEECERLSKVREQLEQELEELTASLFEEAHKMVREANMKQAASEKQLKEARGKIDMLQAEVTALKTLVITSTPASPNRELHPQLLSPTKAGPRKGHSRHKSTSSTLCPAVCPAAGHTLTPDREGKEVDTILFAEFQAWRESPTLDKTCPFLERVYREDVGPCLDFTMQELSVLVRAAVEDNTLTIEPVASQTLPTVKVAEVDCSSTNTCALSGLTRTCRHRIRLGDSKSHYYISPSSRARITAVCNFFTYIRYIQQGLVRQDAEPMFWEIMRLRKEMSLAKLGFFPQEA

[4] = biological target: T3, GRAB Δ223-228-GFP (UniProt Q8TBN0); assay: as above
T3 sequence: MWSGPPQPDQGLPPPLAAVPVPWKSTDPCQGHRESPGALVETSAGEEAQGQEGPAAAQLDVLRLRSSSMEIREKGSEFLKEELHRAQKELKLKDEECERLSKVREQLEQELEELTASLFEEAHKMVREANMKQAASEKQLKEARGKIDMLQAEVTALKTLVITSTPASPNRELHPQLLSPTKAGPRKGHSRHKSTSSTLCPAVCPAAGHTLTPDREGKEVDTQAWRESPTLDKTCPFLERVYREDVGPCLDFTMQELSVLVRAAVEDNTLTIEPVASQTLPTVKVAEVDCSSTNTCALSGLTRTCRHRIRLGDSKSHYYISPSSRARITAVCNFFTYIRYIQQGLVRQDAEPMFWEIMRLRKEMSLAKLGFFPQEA

[5] = biological target: mCherry-tagged Rab11a (UniProt P62491); assay: co-IP; mCherry-Rab11a precipitated with goat anti-mCherry antibody and Protein G-Sepharose from 500-700 µg pre-cleared HeLa cell extract, overnight at 4°C; washed with RIPA 500 mM NaCl and 150 mM NaCl; western blot

Molecule: Exo70 (from UniProt Q9UPT5 1-735)
- binding [1]: binds weakly

Molecule: Sec8 (from UniProt Q96A65 1-974)
- binding [1]: binds weakly

Molecule: mCherry-tagged Rab11a (from UniProt P62491 1-216)
- binding [2]: binds
- binding [4]: binds
- binding [3]: binds

B1: GFP-tagged Rab3 (GFP-Rab3a) (protein, UniProt P20336 1-220)
chain: T1 sequence
- binding [5]: binds

The remaining lines, values ahead:

- binding [2]: no binding
- binding [1]: binds weakly
- binding [3]: no binding
Molecule: Myc-tagged Sec15a (from UniProt Q8TAG9 1-804)

- binding [5]: binds
B2: GFP tagged to wild-type GRAB (GRAB-GFP) (protein, UniProt Q8TBN0 1-382)
chain: T2 sequence

- binding [5]: binds
B3: GRAB Δ223-228-GFP (protein, UniProt Q8TBN0)
chain: T3 sequence
